Measurements from a collection of fitness landscapes (doi:10.1038/s41467-024-54723-y).
The full ranking holds about 18,000 sequences; the median of “TetR repression strength (sort-seq, GFP reporter)” is about 0.23, and the highest 2% start at about 0.68. Some of the results follow.

Molecular target: TetR (class B, Tn10) (UniProt P04483)
Assay: TetR repression strength (sort-seq, GFP reporter) (relative to tetO2 = 1); higher = stronger repression
Settings: E. coli
In short: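 Three independent transformations of E. coli SIG10-MAX were made with a low-copy plasmid library randomizing eight operator positions between a constitutive promoter and sfGFP, with constitutive TetR. Following 5 h at 37 °C in LB plus 50 µg/mL chloramphenicol, 10^6 cells went through FACS into 13 fluorescence bins, and each bin was sequenced by Illumina. Repression strength was defined as the top bin index plus one minus the read-weighted mean bin, divided by the unaltered operator's value. Averages included only members reaching ≥30 reads in all replicates with a CV ≤0.5.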

Chain of UniProt P04483 (P04483 whole entry): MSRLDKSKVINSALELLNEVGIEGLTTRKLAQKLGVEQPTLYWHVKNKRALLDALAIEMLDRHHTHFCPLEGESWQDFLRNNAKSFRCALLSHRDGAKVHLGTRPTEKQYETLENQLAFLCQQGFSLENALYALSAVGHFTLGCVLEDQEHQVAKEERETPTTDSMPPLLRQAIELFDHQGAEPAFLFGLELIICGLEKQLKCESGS

Sequence | TetR repression strength
TCCCGTGGAGTAGCCGAGA | 0.0713
TCCCATTTAGTGGATGAGA | 0.0386
TCCCTGAGAGTCGTTGAGA | 0.162
TCCCGTGAAGTATCCGAGA | 0.289
TCCCAGAAAGTCATTGAGA | 0.224
TCCCGTCTAGTACGCGAGA | 0.233
TCCCACGCAGTCGGTGAGA | 0.221
TCCCGTACAGTTAGGGAGA | 0.149
TCCCGATAAGTGTTAGAGA | 0.417
TCCCTGGGAGTCGGGGAGA | 0.273
TCCCGTGGAGTGAAGGAGA | 0.344
TCCCGACTAGTATATGAGA | 0.311
TCCCGCACAGTGTAGGAGA | 0.188
TCCCCGCGAGTAGTGGAGA | 0.296
TCCCGATAAGTGGCAGAGA | 0.218
TCCCGAATAGTATAGGAGA | 0.251
TCCCTGCTAGTATCCGAGA | 0.207
TCCCGTGGAGTTATAGAGA | 0.155
TCCCGGCCAGTGCAGGAGA | 0.258
TCCCGTTTAGTTACAGAGA | 0.213
TCCCCAATAGTATTTGAGA | 0.42
TCCCGCCTAGTTGCGGAGA | 0.0507
TCCCGGATAGTCTCTGAGA | 0.00964
TCCCGTCTAGTTCGAGAGA | 0.378
TCCCGTGAAGTGGCGGAGA | 0.314
TCCCACACAGTACGCGAGA | 0.238

Sequence | TetR repression strength
TCCCGCTCAGTCTCTGAGA | 0.447
TCCCAATGAGTGAATGAGA | 0.446
TCCCACTAAGTGCATGAGA | 0.23
TCCCAACCAGTAATCGAGA | 0.12
TCCCTCACAGTGCTTGAGA | 0.321
TCCCGTCGAGTGATTGAGA | 0.372
TCCCAATGAGTTGCAGAGA | 0.0192
TCCCGGCGAGTGAGTGAGA | 0.401
TCCCTTCTAGTTCGAGAGA | 0.01
TCCCAAACAGTTGGCGAGA | 0.256
TCCCCAGGAGTGGGCGAGA | 0.894
TCCCGCAGAGTGTCCGAGA | 0.193
TCCCGTTGAGTTCAAGAGA | 0.284
TCCCTAGTAGTGTTAGAGA | 0.297
TCCCGTATAGTAGGAGAGA | 0.0443
TCCCAGTCAGTCAGTGAGA | 0.297
TCCCAGGTAGTCATTGAGA | 0.226
TCCCGCGCAGTACACGAGA | 0.242
TCCCCTTTAGTTCGGGAGA | 0.339
TCCCTCGAAGTCGTCGAGA | 0.277
TCCCACGTAGTCTGCGAGA | 0.192
TCCCCAAAAGTGTAAGAGA | 0.264
TCCCGGGGAGTGGCTGAGA | 0.301
TCCCATACAGTCCCGGAGA | 0.199
TCCCGACGAGTAGAGGAGA | 0.249
TCCCTGTGAGTTTTTGAGA | 0.1

Sequence | TetR repression strength
TCCCGGCGAGTAGGGGAGA | 0.303
TCCCATAGAGTATTCGAGA | 0.145
TCCCGCTTAGTCGCAGAGA | 0.21
TCCCGTTAAGTACGTGAGA | 0.085
TCCCAGCGAGTTGAAGAGA | 0.148
TCCCGTTAAGTGAGAGAGA | 0.0731
TCCCCTTAAGTAGTGGAGA | 0.604
TCCCGTCAAGTGTGGGAGA | 0.267
TCCCTATTAGTGCCTGAGA | 0.35
TCCCATGAAGTCATAGAGA | 0.193
TCCCAAAGAGTCCTCGAGA | 0.426
TCCCGGCTAGTCAGGGAGA | 0.349
TCCCGATGAGTGTCCGAGA | 0.304
TCCCAGAGAGTGGGAGAGA | 0.229
TCCCGGCAAGTGATTGAGA | 0.286
TCCCTGTGAGTGGTTGAGA | 0.0512
TCCCGGCAAGTATTAGAGA | 0.124
TCCCTGACAGTTTAGGAGA | 0.196
TCCCGGAGAGTATGGGAGA | 0.157
TCCCAGGGAGTGTTTGAGA | 0.294
TCCCAGCGAGTTGCAGAGA | 0.403
TCCCGTAGAGTGCAAGAGA | 0.396
TCCCAAAAAGTGGGTGAGA | 0.178
TCCCTCTTAGTGCTTGAGA | 0.116
TCCCTACAAGTGGAAGAGA | 1.21
TCCCCTATAGTGGGCGAGA | 0.165

Sequence | TetR repression strength
TCCCTATCAGTAACCGAGA | 0.42
TCCCCGTTAGTTGGCGAGA | 0.208
TCCCAAAAAGTGGCAGAGA | 0.351
TCCCAAGGAGTGTATGAGA | 0.293
TCCCGCGAAGTAAGCGAGA | 0.151
TCCCGGGCAGTGGAGGAGA | 0.112
TCCCTTAAAGTCATGGAGA | 0
TCCCGCCCAGTGGCTGAGA | 0.211
TCCCCGTGAGTCAACGAGA | 0.241
TCCCGGGGAGTGTACGAGA | 0.194
TCCCGTGTAGTAGGGGAGA | 0.173
TCCCGAATAGTTGTGGAGA | 0.107
TCCCTTGAAGTTCTGGAGA | 0.478
TCCCCGGGAGTCGTCGAGA | 0.116
TCCCTGTTAGTAAGAGAGA | 0.158
TCCCCCCTAGTACACGAGA | 0.41
TCCCCGGAAGTCAGGGAGA | 0.141
TCCCTAGGAGTGAGAGAGA | 0.293
TCCCTAGGAGTCTGGGAGA | 0.28
TCCCTCGGAGTTTGGGAGA | 0.238
TCCCTAATAGTATTCGAGA | 0.236
TCCCAAGGAGTTTTTGAGA | 0.299
TCCCGGGGAGTCTCAGAGA | 0.479
TCCCCCTAAGTTGGAGAGA | 0.518
